From a collection of fitness landscapes (doi:10.1126/science.1257360)
Some of the results follow.

B1: PhoQ; a variant is named by its letters at X, in order, P23837 (parent)
chain: MKKLLRLFFPLSLRVRFLLATAAVVLVLSLAYGMVALIGYSVSFDKTTFRLLRGESNLFYTLAKWENNKLHVELPENIDKQSPTMTLIYDENGQLLWAQRDVPWLMKMIQPDWLKSNGFHEIEADVNDTSLLLSGDHSIQQQLQEVREDDDDAEMTHSVAVNVYPATSRMPKLTIVVVDTIPVELKSSYMVWSWFIYVLSANLLLVIPLLWVAAWWSLRPIEALAKEVRELEEHNRELLNPATTRELTSLVRNLNRLLKSERERYDKYRTTLTDLTHSLKTPLXXLQXXLRSLRSEKMSVSDAEPVMLEQISRISQQIGYYLHRASMRGGTLLSRELHPVAPLLDNLTSALNKVYQRKGVNISLDISPEISFVGEQNDFVEVMGNVLDNACKYCLEFVEISARQTDEHLYIVVEDDGPGIPLSKREVIFDRGQRVDTLRPGQGVGLAVAREITEQYEGKIVAGESMLGGARMEVIFGRQHSAPKDE

Variants of: B1
Assay: enrichment ratio after two sorts for PhoP signalling (ratio (wild type AVST 3.29)); higher = more functional
Conditions: with PhoP (E. coli)

Variant	enrichment ratio
ENDH	≤ 0.25
NLWW	≤ 0.25
FQNH	≤ 0.25
HNCM	≤ 0.25
RNMI	≤ 0.25
NAMH	≤ 0.25
HELP	≤ 0.25
KSSL	≤ 0.25
GCIR	≤ 0.25
DSWY	≤ 0.25
PYKM	≤ 0.25
SCIW	≤ 0.25
SPRN	≤ 0.25
ANLK	≤ 0.25
MKRY	≤ 0.25
ETPC	≤ 0.25
KNKY	≤ 0.25
GRNQ	≤ 0.25
GKAD	≤ 0.25
RHNG	≤ 0.25
VCIY	≤ 0.25
HMYR	≤ 0.25
STQF	7.27
TMVT	≤ 0.25

Variant	enrichment ratio
LFLF	≤ 0.25
LMWG	≤ 0.25
RYYW	≤ 0.25
MCVY	≤ 0.25
YMYL	≤ 0.25
LVNT	≤ 0.25
PHVS	0.267
HVPK	≤ 0.25
HFAQ	≤ 0.25
VWVS	0.416
YIWM	≤ 0.25
RMFL	≤ 0.25
KISQ	≤ 0.25
KSHV	≤ 0.25
VIGP	≤ 0.25
GGHY	≤ 0.25
ARDL	≤ 0.25
IKCY	≤ 0.25
KFAC	≤ 0.25
NVAN	≤ 0.25
FNCE	≤ 0.25
TIDI	≤ 0.25
YACT	0.253
HREQ	≤ 0.25

Variant	enrichment ratio
VRCW	≤ 0.25
MCFD	≤ 0.25
YCRH	≤ 0.25
LKFF	≤ 0.25
FLWI	≤ 0.25
EMET	≤ 0.25
FVCN	1.43
HKVG	≤ 0.25
EFSI	≤ 0.25
RGQH	≤ 0.25
FNHW	≤ 0.25
KFCC	≤ 0.25
WHLN	≤ 0.25
DTEV	2.38
MLCP	≤ 0.25
PGYE	≤ 0.25
RMAI	≤ 0.25
SGMM	5
YEAH	≤ 0.25
FPKY	≤ 0.25
MCGF	8.81
LVYN	≤ 0.25
NHRL	≤ 0.25
CFWY	≤ 0.25

Variant	enrichment ratio
MMVH	≤ 0.25
RCTS	≤ 0.25
NVWE	≤ 0.25
WYEP	≤ 0.25
IFDM	≤ 0.25
WMTC	≤ 0.25
QKVR	≤ 0.25
VFHH	≤ 0.25
FYER	≤ 0.25
RGFA	≤ 0.25
KLLC	≤ 0.25
LIHL	≤ 0.25
WAVP	≤ 0.25
QRSE	≤ 0.25
EGHW	≤ 0.25
WAVF	≤ 0.25
KRPK	≤ 0.25
TGGE	≤ 0.25
YTMW	≤ 0.25
KMQV	≤ 0.25
EYHW	≤ 0.25
TPQH	≤ 0.25
RFEC	≤ 0.25
MEHW	≤ 0.25

Variant	enrichment ratio
IQAL	≤ 0.25
WFNG	≤ 0.25
TEQM	17.8
DPYN	≤ 0.25
GTMA	≤ 0.25
GSCD	≤ 0.25
FLVY	≤ 0.25
SSVV	10.3
DVFP	≤ 0.25
CFSS	11.9
LFCS	≤ 0.25
VCIT	≤ 0.25
PSWT	≤ 0.25
HYSG	≤ 0.25
KMHM	≤ 0.25
SVLK	0.56
VQFI	≤ 0.25
IFKH	≤ 0.25
VRCG	≤ 0.25
FMPI	≤ 0.25
YAWL	≤ 0.25
GALK	≤ 0.25
QSGQ	≤ 0.25
SEIV	18.7

Variant	enrichment ratio
SPAV	≤ 0.25
YFDP	≤ 0.25
DVTF	≤ 0.25
HPTQ	≤ 0.25
GKNR	≤ 0.25
NYQY	≤ 0.25
GCNM	≤ 0.25
WDAQ	≤ 0.25
RNTH	≤ 0.25
KSEP	≤ 0.25
LTES	≤ 0.25
YDIP	≤ 0.25
EIRQ	≤ 0.25
HLEL	≤ 0.25
YAVS	≤ 0.25
WVKD	≤ 0.25
VGYR	≤ 0.25
IPCT	≤ 0.25
ARQF	≤ 0.25
KCGN	≤ 0.25
PWTS	≤ 0.25
FKES	≤ 0.25
KTWM	≤ 0.25
ELRG	≤ 0.25

Variant	enrichment ratio
GWQK	≤ 0.25
SQDQ	6.3
LSNY	≤ 0.25
SAEI	≤ 0.25
SGFS	≤ 0.25
DGVA	≤ 0.25
EQEV	≤ 0.25
EEYL	≤ 0.25
EQMC	≤ 0.25
QFDM	≤ 0.25
YHKA	≤ 0.25
KTSE	≤ 0.25
SWNY	≤ 0.25
NAFQ	≤ 0.25
RPAH	≤ 0.25
QFHM	≤ 0.25
HQTA	≤ 0.25
PQRV	≤ 0.25
VEET	≤ 0.25
YFFK	≤ 0.25
PAWR	≤ 0.25
MCVM	≤ 0.25
DLHR	≤ 0.25
ICKT	≤ 0.25

Variant	enrichment ratio
KIQL	≤ 0.25
NLVR	≤ 0.25
NSHK	≤ 0.25
RKRE	≤ 0.25
ASNF	5.09
VGHE	≤ 0.25
WMGK	≤ 0.25
KQYV	≤ 0.25
PCMA	≤ 0.25
WSPA	≤ 0.25
HDIT	≤ 0.25
KSFQ	≤ 0.25
AQQM	≤ 0.25
FDWF	≤ 0.25
ESCA	≤ 0.25
QMSA	≤ 0.25
HLQV	≤ 0.25
KKSC	≤ 0.25
IQNK	≤ 0.25
TQFH	≤ 0.25
GYHW	≤ 0.25
DMDE	≤ 0.25
PNQS	≤ 0.25
LNTW	≤ 0.25

Variant	enrichment ratio
IRSP	≤ 0.25
PSGS	≤ 0.25
APCS	≤ 0.25
EPPS	≤ 0.25
MCCM	4.5
PIED	≤ 0.25
PFNL	≤ 0.25
RGTA	≤ 0.25
LVYM	≤ 0.25
KAPY	≤ 0.25
DCFT	≤ 0.25
SGWT	≤ 0.25
TTIH	≤ 0.25
GHTG	≤ 0.25
VQAT	≤ 0.25
NGKE	≤ 0.25
RKGC	≤ 0.25
KVLN	≤ 0.25
DRTV	≤ 0.25
SWNE	≤ 0.25
QYVY	≤ 0.25
HGHV	≤ 0.25
RYKR	≤ 0.25
PIIP	≤ 0.25

Variant	enrichment ratio
PMPM	≤ 0.25
WLPT	≤ 0.25
WSMM	≤ 0.25
YVGS	≤ 0.25
RAMD	≤ 0.25
RRGM	≤ 0.25
LDPR	≤ 0.25
RRSM	≤ 0.25
YQAG	≤ 0.25
TMHI	0.949
TGQW	≤ 0.25
LLWC	≤ 0.25
VKWK	≤ 0.25
NLKP	≤ 0.25
HRER	≤ 0.25
YWPI	≤ 0.25
TNRN	≤ 0.25
TLEG	≤ 0.25
VARE	≤ 0.25
WFWF	≤ 0.25
VLNS	≤ 0.25
VLPP	≤ 0.25
MIAP	≤ 0.25
NADS	≤ 0.25

Variant	enrichment ratio
MEHQ	≤ 0.25
IYSM	≤ 0.25
YFFA	≤ 0.25
YITV	0.482
HKFG	≤ 0.25
LLQW	≤ 0.25
TTYP	≤ 0.25
PGHA	≤ 0.25
ANYD	≤ 0.25
RIRL	≤ 0.25
KCQV	≤ 0.25
SALM	12.7
WSTV	≤ 0.25
GMGG	≤ 0.25
IRGY	≤ 0.25
TEHH	≤ 0.25
TAKY	≤ 0.25
HGPY	≤ 0.25
HYSW	≤ 0.25
MIAF	14
HYAL	≤ 0.25
YTTG	≤ 0.25
HRQC	≤ 0.25
YYPN	≤ 0.25

Variant	enrichment ratio
RHYA	≤ 0.25
LMYG	≤ 0.25
VPCW	1.13
CHFP	≤ 0.25
QAVN	≤ 0.25
WDVF	≤ 0.25
NGVR	≤ 0.25
HNVC	≤ 0.25
MYHK	≤ 0.25
ERED	≤ 0.25
KNDR	≤ 0.25
MASC	≤ 0.25
KVRS	≤ 0.25
TCSM	18.9
NAVY	≤ 0.25
YSFP	≤ 0.25
SSTK	≤ 0.25
TTYC	≤ 0.25
LDHY	≤ 0.25
WLYW	≤ 0.25
IYIA	≤ 0.25
FWEW	≤ 0.25
GAHG	≤ 0.25
IRCT	≤ 0.25

Variant	enrichment ratio
RMNP	≤ 0.25
PDLN	≤ 0.25
FGGV	≤ 0.25
MIFT	≤ 0.25
DSLL	≤ 0.25
TYNV	≤ 0.25
VLMK	≤ 0.25
MEDF	≤ 0.25
LDSS	≤ 0.25
MNGT	6.87
HGSS	≤ 0.25
QMIW	≤ 0.25
YYYV	≤ 0.25
WTSK	≤ 0.25
YQWY	≤ 0.25
TCFF	≤ 0.25
SHHH	≤ 0.25
MIRP	≤ 0.25
